B1: TPR 5TU (parent)
chain: GGAUCUUCUCGAUCUAACAAAAAAGACAAAUCUGCCACAAAGCUUGAGAGCAUCUUCGGAUGCAGAGGCGGCAGCCUUCGGUGGCGCGAUAGCGCCAACGUUCUCAACUAUGACACGCAAAACGCGUGCUCCGUUGAAUGGAGUUUAUCAUG

Variants at the floor of the assay are shown more often than the library holds them.

Variants of B1 are the subject of this series. Put plainly: polymerase ribozyme fitness, log enrichment relative to wild type (log ratio); higher = more active; in vitro selection for triplet polymerase activity. An outline of the steps:
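The heterodimeric triplet polymerase ribozyme's subunits were each mutagenized into PCR-built libraries and transcribed. Every library was selected once, in triplicate, by annealing with a biotinylated primer, the partner subunit and triplets, incubating frozen at −7 °C, gel-excising extended constructs, capturing on streptavidin beads and running RT-PCR. Input and output libraries were Illumina-sequenced, with genotypes kept only at ≥10 input reads and ≥1 read per output. Fitness, from inverse-variance-weighted replicate averages, is the base-2 logarithm of genotype enrichment over wild-type enrichment.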
Consider A16U A30C U44A G88A C105U U109A, for which the “polymerase ribozyme fitness (log ratio)” value is at most -4.2.
Turning to A16G A49C G50C C85G G117A U148G, the “polymerase ribozyme fitness (log ratio)” value was at most -4.2.
Next, A16C C87U G128U: at most -4.2; A16C C36U C54U A107U G140C: at most -4.2; A16U C35U G58A C96G C114U: at most -4.2.
Next, A16U C35A A47G G74A G80C G92U U135A: at most -4.2; U15G C54G C87G: at most -4.2; U15G C18G A40U: -1.5.
Under A16G A20U A28G A89U A91U stands at most -4.2.
Consider A16U A24C G58C U61A G67C G68A U77G C96G U127G U139G, for which the “polymerase ribozyme fitness (log ratio)” value was at most -4.2.
Under A16U C35G C36U C95U stands at most -4.2; under C14U A30C A40U A47C C51A G124A, at most -4.2.
For the variant C14U C32G U33G A47U U53A G74A C95G A106G U135A, the “polymerase ribozyme fitness (log ratio)” value was at most -4.2.
As to A16U A22U C69A C85U G117U C118A G141A, the “polymerase ribozyme fitness (log ratio)” value was at most -4.2.
Next, A16C A21U C87U U111G U145A: at most -4.2; C14U G81A: -1.14; U15C A16G G59U A60G G92A C116U: -0.967.
C14U A40U G88A C95A A150U: the “polymerase ribozyme fitness (log ratio)” value was at most -4.2.
Next, U15G A37C A47C C95U: -1.64.
Next, A16G A28C G88A G92A C116A A120U C131G A147G: at most -4.2; U15C A16U A24U G68C: at most -4.2; U15A A52C A66C G84U: at most -4.2.
Under A16U A22C G42C G71A U146A stands at most -4.2; under A16G A26U C85A C105G C114U G141C U151C, at most -4.2.
In the case of U15G C27U G83A A121C, the “polymerase ribozyme fitness (log ratio)” value was -2.52.
Next, C14U C79A C87G C105U U148G: at most -4.2; A16G A22U U55G C75G A147C: at most -4.2; U15C A22G A47C U55A G88C U139C: at most -4.2.
Turning to A16C G59A C85G G126U, the “polymerase ribozyme fitness (log ratio)” value is -2.76.
Regarding U15G A37G A60U A66C G86A C95A G126A, the “polymerase ribozyme fitness (log ratio)” value is at most -4.2.
Regarding C14U G83U G88C A147G, the “polymerase ribozyme fitness (log ratio)” value was at most -4.2.
Under A16C C27U U31C G50C C93A G140C stands at most -4.2; under A16C C35G G50A G58A G80U C95A C105U A113C, at most -4.2.
Under U15G A29C G42C A91G G92A C103U A115C A137U stands at most -4.2.
As to U15G C93U, the “polymerase ribozyme fitness (log ratio)” value is -2.61.
Next, U15G C85U: -0.0947; A16U A37U U56C A91U U104G: at most -4.2.
Under A16U A24G A26U G92U G94U U104G A106C G143A U145G stands at most -4.2.
Under U15A G48C G83U stands -2.41.
For the variant U15A A39C C123U A137C U151C, the “polymerase ribozyme fitness (log ratio)” value is at most -4.2.
With A16G C38A U56G C96U C103U C149G, the “polymerase ribozyme fitness (log ratio)” value is at most -4.2.
On to A16C G25C A64U C85A A89C G128A, for which the “polymerase ribozyme fitness (log ratio)” value is at most -4.2.
Next, A16U A39G A89C C95U G152C: at most -4.2; A16U A106G: -1.8.
Under U15G C54U G94C U127G G141C stands at most -4.2; under U15G A21U A39G A47G G83A A142G, -3.92; under U15A A20G A28U C38A A49G G70C G133U U144G, at most -4.2.
Next, A16C U45A U56G A66G G92C C108G G124U: at most -4.2; A16G A19U G46A C54G A66G C95U A142U: at most -4.2.
Turning to U15G C69A C96U, the “polymerase ribozyme fitness (log ratio)” value was -1.09.
Take A16U C43A C69A C85A C103A G126U U151G: the “polymerase ribozyme fitness (log ratio)” value is at most -4.2.
Next, U15C A20G A21U A39U C76U C85A C103A C108U: at most -4.2.
Regarding C14U C18U C36U G50C C85A U144C, the “polymerase ribozyme fitness (log ratio)” value is at most -4.2.
Under A16U A21G C85G C93A C116A A150U stands at most -4.2; under U15A C38A A41C C75U U135C, -3.63.
Next, A16U A22U G117A C132A U151G: at most -4.2; U15C A39C G67U G84U U90G A106U A107G A110U: at most -4.2.
Next, A16G A29U A40C C57U G62A A115G C149U: at most -4.2.
As for A16G A28G C93U A110G G152U, the “polymerase ribozyme fitness (log ratio)” value was at most -4.2.
Turning to C14U U53A U77A G88U G94A G133A A137U A142U, the “polymerase ribozyme fitness (log ratio)” value is at most -4.2.
For U15G C35G G50C C96G G143U, the “polymerase ribozyme fitness (log ratio)” value was at most -4.2.
Under U15G C43U G59A G94U stands at most -4.2.
Regarding U15G C36U A47G A89G G92C A115U C129A, the “polymerase ribozyme fitness (log ratio)” value was at most -4.2.
Under C14U U31G G92A C103U U109G stands at most -4.2.
Under A16G A39C stands -2.62.
Next, C14U G50A G58C G65A C103A A107U G124U U127G: at most -4.2; C14U C87U G88A U144C: at most -4.2.
Turning to A16C G84U A120G, the “polymerase ribozyme fitness (log ratio)” value was -2.78.
Under A16C C35U G50U G58C A64G C79A C99U U146C U151G stands at most -4.2.
As for A16G G42U C43U A64C C87U, the “polymerase ribozyme fitness (log ratio)” value is at most -4.2.
Next, U15G A39U A91U A120G U148G: at most -4.2; A16U A37U C75U U148G: at most -4.2; A16C C51U C75G G94A A107U: at most -4.2.
Under U15G A98G A122C G124U stands -1.76.
Under U15G C18G A20G G80C C85G A106C U139G stands at most -4.2; under C14U U53G G94C A98G C123G, at most -4.2; under A16C A20U A28U C35A G50U G59C G84A C87G C96U C103A U148A, at most -4.2.
Regarding U15C C38U G86U A91U G126U U134G A142G, the “polymerase ribozyme fitness (log ratio)” value is at most -4.2.
Next, A16G A20G C35A G88C: at most -4.2; U15G C32G C54A G86A: at most -4.2.
Under U15C A21C U61A G62C C95A U104A A138U stands at most -4.2; under A16C A17G G58U C87A C93A, at most -4.2.
Under C14U G50U stands -1.15.

For the origin of these results see the RNAGym collection of RNA variant scans (doi:10.1073/pnas.2313332121).
